Measured values: patent publication US20220175781A1, “CD40L COMPOSITIONS AND METHODS FOR TUNABLE REGULATION” (Obsidian Therapeutics, Inc., priority 2019, published 2022)

Biological target: CD40 (UniProt P25942)
Assay: cell-based or functional assay

UniProt P25942, sequence (P25942 21-277 limits assumed): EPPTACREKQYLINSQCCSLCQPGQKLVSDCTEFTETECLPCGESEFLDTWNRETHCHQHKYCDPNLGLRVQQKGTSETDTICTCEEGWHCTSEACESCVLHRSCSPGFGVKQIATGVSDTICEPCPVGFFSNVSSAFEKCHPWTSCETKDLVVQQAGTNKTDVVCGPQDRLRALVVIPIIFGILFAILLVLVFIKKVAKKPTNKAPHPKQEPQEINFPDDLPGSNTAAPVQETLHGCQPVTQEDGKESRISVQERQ

SEAP reporter of HEK-Blue CD40 cells co-cultured 24 hours with transduced Jurkat cells plus 1 µM Shield-1, given as Soluble CD40L (pg/ml) against a recombinant soluble CD40L standard: 4830 pg/mL
B1: OT-001685 (Met; FKBP (M1del, F37V, L107P); Flexible G/S rich linker; MH Linker; CD40L; stop) (ligand)
chain: [sequence of about 100 residues not given]GSMHMIETYNQTSPRSAATGLPISMKIFMYLLTVFLITQMIGSALFAVYLHRRLDKIEDERNLHEDFVFMKTIQRCNTGERSLSLLNCEEIKSQFEGFVKDIMLNKEETKKENSFEMQKGDQNPQIAAHVISEASSKTTSVLQWAEKGYYTMSNNLVTLENGKQLTVKRQGLYYIYAQVTFCSNREASSQAPFIASLCLKSPGRFERILLRAANTHSSAKPCGQQSIHLGGVFELQPGASVFVNVTDPSQVSHGTGFTSFGLLKL
